From the supplement of paper PMC7826260
Some of the results follow. One pool of 16,384 single-stranded DNAs met each Rep nickase domain in vitro at 3 µM enzyme and 37 °C for 1 h; the strands have 90 letters, of which the middle is given. Values are log2 of uncut reads against the no-enzyme pool; uncut sequences lie near 0, cut ones below; no hit call is given. The scaling is to total reads; uncut strands gain when others are lost, and binding without cutting may add a little.

test system: T1, Rep nickase domain of tomato golden mosaic virus; experiment: uncleaved DNA left, log2 of reads against the no-enzyme library (log2 ratio); higher = less cleavage (more negative = more Rep cleavage of the k-mer); sequences stand for … in CTCGTCCG…ACCGGAGA
T1 sequence (residues 1-124 of Rep, tag left off): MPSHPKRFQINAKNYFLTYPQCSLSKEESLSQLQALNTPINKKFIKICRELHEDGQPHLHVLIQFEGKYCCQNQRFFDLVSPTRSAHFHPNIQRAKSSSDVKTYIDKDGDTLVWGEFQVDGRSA
Protocol: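 A pool of 90-nt single-stranded DNAs with seven random bases just before the constant AC of the nick site (name = the seven bases) was cut by 3 µM recombinant His6-SUMO-tagged Rep nickase domain (300 nM DNA, 50 mM HEPES pH 8.0, 50 mM NaCl, 1 mM MnCl2, 1 h, 37 °C, three replicates). Uncut DNA was amplified and sequenced.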

Sequence	uncleaved DNA left (log2)
GGACCAC	-0.0372
CCACTCC	-0.0846
GCGCAAT	-0.219
GATGGAA	0.038
TCGGTCA	-0.0172
TAGGCTA	0.154
GGGCAAG	0.0899
GACCTGA	-0.0706
CAGCAGA	-0.00491
ACTGCAA	0.0307
TCGAGCT	0.0172
CCCTTTT	-0.132
CCCTATC	-0.00331
AAGATCG	0.00569
GCGTAAT	-0.0301
TAGCGAC	0.00654
ATCATAG	0.0113
GAAGGCA	-0.0208
CCCATGC	-0.158
GCACCCA	0.0501

Sequence	uncleaved DNA left (log2)
AGTTAGA	0.0262
AGTTTAC	0.0553
TACTGAC	-0.144
CTTTGGG	0.0152
GGTAATC	0.0574
AGGCATT	-0.146
TACCGTG	-0.123
CCGAAGA	-0.165
GGAGCCA	-0.000299
GAGTGGA	0.0989
CAGATTT	-0.142
CGAAGGC	0.113
TTACTAC	0.0422
CGCCCCG	-0.0416
CCGTATT	-1.86
TATGGTG	0.043
AAGACCC	0.0631
ACTCTAT	-0.0491
GTTGAAA	0.152
ATCCTCC	0.0866
